± gives the standard deviation. Over roughly 5,500 sequences, “pre-steady-state target cleavage rate” has its median near 0.1; the highest 2% begin near 0.64. The list shows a part of the results, in another mix than the full data.

The assay concerns MIWI (PIWIL1) piRISC loaded with piRNA #2 (30 nt). Kind of assay: pre-steady-state target cleavage rate (min^-1); MIWI and MILI are mouse PIWI proteins and EfPiwi is from a freshwater sponge; tags in brackets are library labels; higher = faster piRNA-guided slicing of the target. The settings on record: guide: piRNA #2 5'p-UUAGGUAACCCAGUAGAUCCAGAGGAAUUC; auxiliary factor: 500 nM mouse GTSF1. On the procedure:
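Cleave-'n-Seq: a library of target RNAs (target site embedded in constant flanks, ACAGCATTCCGCGTTAGTGATATCCG... 5' flank; DNA-blocked outside the site) at 0.1 nM was incubated with 1 nM active mouse MILI or MIWI piRISC (synthetic 5'-monophosphorylated piRNA guide) with or without 500 nM mouse GTSF1 at 33 °C for 1 min to 16 h. Uncleaved targets were sequenced and normalised to non-target controls, and the pooled three trials were fitted to a burst-and-steady-state model to give the pre-steady-state cleavage rate (min^-1; k3 is constrained to at most 1e-4). Sequence is the target site only; target names encode pairing extent (gX:gY) and contiguous / 1-mismatch / 2-mismatch / bulge geometry. Fits with R² ≤ 0 are excluded.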
Regarding CUUAUGGUCUGGAUCUACUGGGUUACCUAA, the “pre-steady-state target cleavage rate” value was found to be 0.285 ± 0.027.

With CUUAUCCUCUGGUUCUACUGGGUUACCAAA, the “pre-steady-state target cleavage rate” value is 0.266 ± 0.056.

Turning to CUUAAGCUCUGAGAUCUACUGGGUUACCUAA, the “pre-steady-state target cleavage rate” value stood at 0.231 ± 0.022.

Regarding CUUAAGGAGUGGAUCUACUGCGUUAGCUAA, the “pre-steady-state target cleavage rate” value came to 0.00745 ± 0.0066.

As to CUUAAGCUCUGGAUCUACUGUGUUACCUAA, the “pre-steady-state target cleavage rate” value is 0.45 ± 0.051.

On to CAAUUCCUCAGGAUCUACUGGGUUACGUAA, for which the “pre-steady-state target cleavage rate” value worked out at 0.594 ± 0.058.

Consider CAAUUGCACUGGAUCUACUGGGUUACCUAA, for which the “pre-steady-state target cleavage rate” value stood at 0.388 ± 0.056.

On to CUUAAGGUGUGGAUCAACUGGGUUACCUAA, for which the “pre-steady-state target cleavage rate” value worked out at 0.0298 ± 0.0095.

Take CUUAACCUCUGGACUCUACUGGGUUACCUAA: the “pre-steady-state target cleavage rate” value turned out to be 0.0961 ± 0.011.

For CUUAUCCACUGGUUCUACUGGGUUACCUAA, the “pre-steady-state target cleavage rate” value is 0.367 ± 0.025.

On to CUUUUCCUUCUGGAUCUACUGGGUUACCUAA, for which the “pre-steady-state target cleavage rate” value was 0.455 ± 0.051.

Regarding CAAUUCCUGUGGAUCUUCUGGGUUACCUAA, the “pre-steady-state target cleavage rate” value was 0.309 ± 0.065.

For CAAUUCCUCUGUAUCUACUGGGUUACCUAA, the “pre-steady-state target cleavage rate” value amounted to 0.479 ± 0.058.

In the case of GAAUUCGUCUGGAUCUACUGGGUUACCAAA, the “pre-steady-state target cleavage rate” value was determined as 0.327 ± 0.056.

With CUUAUCCACUGGAUCUACUGGGUUACCUUA, the “pre-steady-state target cleavage rate” value was 0.383 ± 0.055.

Take CUAUUGCUCUGGAUCUACUGGGUUUCCUAA: the “pre-steady-state target cleavage rate” value stood at 0.15 ± 0.028.

Turning to CUUAAGGACUGGAUCUACUGGGUUAGCCUAA, the “pre-steady-state target cleavage rate” value amounted to 0.0629 ± 0.041.

For CUUUACCUCAGGAUCUACUGGGUUACCUAA, the “pre-steady-state target cleavage rate” value amounted to 0.443 ± 0.046.

As for CUUAAGGAGAGGAUCUACUGGGUUACUUAA, the “pre-steady-state target cleavage rate” value stood at 0.0208 ± 0.0083.

In the case of CAAAUCCACUGGAUCUACUGGGUUACCUAA, the “pre-steady-state target cleavage rate” value stood at 0.493 ± 0.052.

Consider CUUUUCCUCUGGACCUACUGGGUUACCUAA, for which the “pre-steady-state target cleavage rate” value was determined as 0.157 ± 0.02.

Regarding CUAUUCCUCUGGAUCUACUGGCUUACCUAA, the “pre-steady-state target cleavage rate” value amounted to 0.105 ± 0.017.

Turning to CUAUUCCUCUGGAUGUACUCGGUUACCUAA, the “pre-steady-state target cleavage rate” value was 0.113 ± 0.022.

As for CUUUUCCACUGGAUCUACUGGGUAACCUAA, the “pre-steady-state target cleavage rate” value came out at 0.266 ± 0.043.

Take CUUAAGGAGUGGAUCUACACCGUUACCUAA: the “pre-steady-state target cleavage rate” value came to 0.0034 ± 0.0022.

In the case of CUUAAGGUCUGGAUCUUCUCGGUUACCUAA, the “pre-steady-state target cleavage rate” value was found to be 0.0252 ± 0.01.

As for CUAUUCCUCUGGUUCUACUGGGUUAGCUAA, the “pre-steady-state target cleavage rate” value was determined as 0.309 ± 0.046.

Turning to CUUAAGGAGUGGAUGUACUGGGUUACGUAA, the “pre-steady-state target cleavage rate” value is 0.129 ± 0.043.

As to CAAUUCCUCAGGAUGUACUGGGUUACCUAA, the “pre-steady-state target cleavage rate” value is 0.538 ± 0.059.

CUUUUCCUGUGGAUCAACUGGGUUACCUAA: the “pre-steady-state target cleavage rate” value is 0.337 ± 0.029.

For the sequence CUUAAGGUCUGGAUCUACUGGGUUAACUAA, the “pre-steady-state target cleavage rate” value was determined as 0.225 ± 0.033.

For CUUAAGCGUCUGGAUCUACUGGGUUACCUAA, the “pre-steady-state target cleavage rate” value worked out at 0.266 ± 0.023.

CAAUUCCUCUGCAUCAACUGGGUUACCUAA: the “pre-steady-state target cleavage rate” value amounted to 0.484 ± 0.033.

Regarding CUUAAGGAGUGGAUCUAGUGGGUUACCUAA, the “pre-steady-state target cleavage rate” value is 0.014 ± 0.0048.

For CUUAAGCUCUGGAUCUACCGGGUUACCUAA, the “pre-steady-state target cleavage rate” value amounted to 0.0507 ± 0.0083.

For the sequence CUUAACCUCUGGAUCUACUGGGUUAACCUAA, the “pre-steady-state target cleavage rate” value was found to be 0.245 ± 0.036.

In the case of CUAUUCCUCUGGAUCUACUGGGUUAGGUAA, the “pre-steady-state target cleavage rate” value was 0.0894 ± 0.024.

Take CUUAAGCUCUGGAUCUAGUGGGUUAGCUAA: the “pre-steady-state target cleavage rate” value is 0.0279 ± 0.0054.

As for CUUAACCUCUGGAUCUACUGGGUUACCUA, the “pre-steady-state target cleavage rate” value worked out at 0.183 ± 0.025.

Turning to CUUAACCUCUGGAAGUACUGGGUUACCUAA, the “pre-steady-state target cleavage rate” value turned out to be 0.465 ± 0.031.

With CUUAAGCUCUGGAUCUACUCGGUUAGCUAA, the “pre-steady-state target cleavage rate” value came out at 0.0319 ± 0.015.

For the sequence CAAUUCCUCUGGAUCUACUGGGUUACACUAA, the “pre-steady-state target cleavage rate” value was determined as 0.591 ± 0.072.

Take CUUAUGCUCUGGAUCUUCUGGGUUACCUAA: the “pre-steady-state target cleavage rate” value came to 0.104 ± 0.012.

For CUUUUCCUCUGGAUCUACUGGGUAUACCUAA, the “pre-steady-state target cleavage rate” value came to 0.447 ± 0.051.

Take GAUUUCCUCUGGAUCUACUCGGUUACCUAA: the “pre-steady-state target cleavage rate” value was 0.0567 ± 0.017.

Turning to CUAUUCCUCUGGAUCUUGUGGGUUACCUAA, the “pre-steady-state target cleavage rate” value is 0.00448 ± 0.0026.

With CUUAAGGUCUGGAUGUACAGGGUUACCUAA, the “pre-steady-state target cleavage rate” value is 0.0551 ± 0.013.

Regarding CUUAUCCUCUGGAUCUACUGGGUUACUCUAA, the “pre-steady-state target cleavage rate” value was found to be 0.262 ± 0.045.

Take GUAUUCCUCUGGAUCUUCUGGGUUACCUAA: the “pre-steady-state target cleavage rate” value worked out at 0.109 ± 0.035.

As to GAAAUCCUCUGGAUCUACUGGGUUACCUUA, the “pre-steady-state target cleavage rate” value was determined as 0.199 ± 0.043.

Regarding GAAUUCCUCUGGACCUACUGGGUUACCUAA, the “pre-steady-state target cleavage rate” value came out at 0.139 ± 0.029.

For CUUAUCCUCUAGGAUCUACUGGGUUACCUAA, the “pre-steady-state target cleavage rate” value worked out at 0.235 ± 0.029.

In the case of CUUAACCUCUGGUUCUACUGGGUUUCCUAA, the “pre-steady-state target cleavage rate” value worked out at 0.322 ± 0.1.

For CUUAACCUCUGGUUCUACUGGGUAACCUAA, the “pre-steady-state target cleavage rate” value was 0.0813 ± 0.022.

For GAAUUCCUCUGGAUCUACUGGGUUACGUAA, the “pre-steady-state target cleavage rate” value was 0.625 ± 0.057.

CUUAACCUCUGGAUCUACUGGCUUACCUAA: the “pre-steady-state target cleavage rate” value was determined as 0.0719 ± 0.0085.

In the case of CUUAACGUCUGGAUCUACUGGGUUACCUUA, the “pre-steady-state target cleavage rate” value came out at 0.208 ± 0.027.

As for CUAUUGCUCUGGAUCUACUCGGUUACCUAA, the “pre-steady-state target cleavage rate” value amounted to 0.0414 ± 0.011.

For the sequence CUUAACCUCUGGAUCUAUGGGUUACCUAA, the “pre-steady-state target cleavage rate” value was determined as 0.0113 ± 0.0029.

On to CUUAAGCUCUCGAUCUACUGGGUUUCCUAA, for which the “pre-steady-state target cleavage rate” value amounted to 0.171 ± 0.025.

As for CUUUUCCUCUGGAUCUACUCGGUUACGUAA, the “pre-steady-state target cleavage rate” value came out at 0.0907 ± 0.029.

Consider GAAUUCCACUGGAUCUACUGGGUUACCUUA, for which the “pre-steady-state target cleavage rate” value came to 0.508 ± 0.064.

CUUAACCUCUGGUUCUAGUGGGUUACCUAA: the “pre-steady-state target cleavage rate” value was 0.162 ± 0.019.

For CUUAACCUCUGGAACUACUGGGAUACCUAA, the “pre-steady-state target cleavage rate” value came out at 0.0426 ± 0.0073.

As for CAUUUCCUCUGGAUCUACUGGGUUACGUAA, the “pre-steady-state target cleavage rate” value was 0.622 ± 0.062.

Consider CUUAAGGUCUGGAUCUACUGGGAUACGUAA, for which the “pre-steady-state target cleavage rate” value worked out at 0.0894 ± 0.017.

Consider CAAUUCCAUCUGGAUCUACUGGGUUACCUAA, for which the “pre-steady-state target cleavage rate” value came out at 0.568 ± 0.064.

Take CUUUUCCUCUGGAUGUACUGGGUUACCAAA: the “pre-steady-state target cleavage rate” value worked out at 0.316 ± 0.037.

For the sequence CUUAACCUGUGGAUCUACUGGGUUACCAAA, the “pre-steady-state target cleavage rate” value amounted to 0.085 ± 0.011.

Take CUUAAGCACUCGAUCUACUGGGUUACCUAA: the “pre-steady-state target cleavage rate” value was 0.138 ± 0.021.

For CUUAAGGUCUGGUUCUACUCGGUUACCUAA, the “pre-steady-state target cleavage rate” value was determined as 0.0235 ± 0.022.

GAAUUCCUGUGGAUCUACUGGGAUACCUAA: the “pre-steady-state target cleavage rate” value amounted to 0.174 ± 0.029.

Source of the values: the supplement of paper PMC10338343.
